Some of the results follow.

To fix the notation:
B1: chr7:135612270:135612271:-_ENSG00000105887_ENST00000393085|hu_mus|hu_hu_hu_mus_False|8_58 (ssRNA)
RNA: GGGAGUUCUACAGUCCGACGAUCGUUUUUUUCUGAGAUGUUAAAUAGUACUUCAGUGGAAAACAAAACUUAACCUUUCGCUAAUGCGUGUUGUACCAAAAGCAGACAUUUUAGCUUCAUUUAUUCACUCAAAAUAUCAUUAAGCAACAGAGGAUUGAGCAUCA
B2: chr1:220276048:220276049:+_ENSG00000067704_ENST00000302637|hu_hu|hu_hu_hu_mus_True|1_18 (ssRNA)
RNA: GGGAGUUCUACAGUCCGACGAUCGCAAAUUGCCUGGUUGGCGGGAAUUGUCCAAGGCUGGGUGGUCCAAACUAAAACGCUAACAGGGGAUGAGGCAUCUGUAAGAGACUCCAACUUUGGAGAAGGCCUCAGGAGGGGAAAUUUCAACAGAGGAUUGAGCAUCA
B3: chr4:48472875:48472876:-_ENSMUSG00000028345_ENSMUST00000030030|mus_mus|motif|central (ssRNA)
RNA: GGGAGUUCUACAGUCCGACGAUCACUGUUCAAUCUAGUGCCACCUUUAAGGGUCUCCGUCACAAACUUCCUUAUUGUUUCGGUCCAACUGGAAUCAUUCUGUAAGGUUGAAGCAUUUGCCAGCGAGACCAUGAUAUCAGACAGCAACAGAGGAUUGAGCAUCA
B4: chr15:75216061:75216062:-_ENSG00000178741_ENST00000564811|perfect_dup|FALSE|FALSE (ssRNA)
RNA: GGGAGUUCUACAGUCCGACGAUCUUUGUCAAGGCCCAGUUCCUCCGGAGUGGAGAUUCCCAGUUCAUUUAAAGUUGGUCUAAGUUCCUGGAUGACAUAGGGGUAGAUUUCCUUAUGAGGUCCUGCUUUGUCCUUAACAACCUCCAACAGAGGAUUGAGCAUCA
B5: 32954790_32955657_1719_CDS_ENSG00000178904_ENST00000392250|human|control|control (ssRNA)
RNA: GGGAGUUCUACAGUCCGACGAUCUACUGAAUAUCGCAUUAUACAUAUCCUCUUUGGGUUAUAAAGAUGGACUGACUUCAGAAGUAACUCCCAUAUUUCAGGGCUACAUAGGCCGAAUGAUGCGAACACACACAUGUGUGACGUCAACAGAGGAUUGAGCAUCA
B6: chr11:46405157:46405158:+_ENSG00000110492_ENST00000395566|hu_hu|hu_hu_hu_mus_False|58_68 (ssRNA)
RNA: GGGAGUUCUACAGUCCGACGAUCCCCUCCCCACUUUGGGCACUUGGUGUGGGCGUGAGAGGACAGGAUGAUUGAUUAAAGCUAACGGGAAGACAAAAGGCACUGGUGGGUUAUAUCUUGGGCCUGUGGGAGAGGAGGGCUCCGCAACAGAGGAUUGAGCAUCA
B7: chr12:39756943:39756944:-_ENSG00000139116_ENST00000544797|hu_mus|hu_hu_hu_mus_False|8_58 (ssRNA)
RNA: GGGAGUUCUACAGUCCGACGAUCGGUUUGGCUGUUACCCCCAAGGGAAUCCUGCAAGAGUCUUGUCAGCUUAGAGUCUCUAUAGGGGACAUGGGUGGCUCUCUUGCUCUUGUCCCCCAAGGCGCUGAUUACAUUGCCAAGAGCCAACAGAGGAUUGAGCAUCA
B8: chr17:64801638:64801639:+_ENSG00000154229_ENST00000413366|hu_mus|hu_hu_hu_mus_False|8_8 (ssRNA)
RNA: GGGAGUUCUACAGUCCGACGAUCUAUAUAUAUAUAUACAUAUGUACACAUAUAUAGUAAAACCCUAGUUAAACGUGUAAAGUAGCCAUUCAUUUUUAAAAUUACAUCUACAUUAAAAAAUUAAUAUAUCUGAUACAGUGCCAGCAACAGAGGAUUGAGCAUCA
B9: chr3:105540709:105540710:-_ENSMUSG00000068798_ENSMUST00000090678|mus_hu|motif|central (ssRNA)
RNA: GGGAGUUCUACAGUCCGACGAUCUCUGACCAGGUCAUAAAAUAUCUCAUUAACAUUGAUCUUUGACUUUGCAGAAGAUUCGGAAAAGGCACAGUUACACCACUGUCUUGCUAAAUUCUGGCCCUGCUCUUUGCCAACUACUCGCAACAGAGGAUUGAGCAUCA
B10: 43428741_43428998_1889_CDS_ENSG00000052841_ENST00000039989|human|control|control (ssRNA)
RNA: GGGAGUUCUACAGUCCGACGAUCAGCCCUCUGAAGACAGGCAAUAGCAAAAGUGCUAUUUCCUACUGCUCUCCAGUAUAGUCCAGCUUCAUUGAGUAUGAGCCAGAUAGGAGCAUUUGGCUUAUUAAUAGCAUGAAAUAAGAACAACAGAGGAUUGAGCAUCA
B11: chr1:58468927:58468928:-_ENSMUSG00000026034_ENSMUST00000148330|mus_mus|mus_mus_mus_hu_False|8_38 (ssRNA)
RNA: GGGAGUUCUACAGUCCGACGAUCAAUUACUGAAAAAGAUGUUCAUUACCUUAGCUAUGUACUUAAUGAACCAAAUUACCCAAACAAAAUAAACAUGUUUACAAAUUAAUGUUAAGAAUUUACAAAGAUUAAAAGCUUAACUUACAACAGAGGAUUGAGCAUCA
B12: chr4:140556289:140556290:+_ENSMUSG00000036622_ENSMUST00000037055|mus_mus|mus_mus_mus_hu_False|1_8 (ssRNA)
RNA: GGGAGUUCUACAGUCCGACGAUCGAUGGAGCUCACCAGGCCCCCUUUUGCCGUGCAGAACCCUGUGCGGGUCACCACUGCCAGGACGUGCGGUCCCACAUAGGCCCGGGCCUGCAAGAUGAGGGUCCCACAGAAGAGGGUGUGCAACAGAGGAUUGAGCAUCA
B13: chr9:95013113:95013114:-_ENSG00000196305_ENST00000443024|hu_hu|hu_hu_hu_mus_False|78_98 (ssRNA)
RNA: GGGAGUUCUACAGUCCGACGAUCCUCAGUCAGAAAGGGUGUGUAGGGGGCCAUCAGUCUGCAAAGAGAAAGCAGGACACUGAACAGUGUCUCCAGAGCCAUGACACAGUCUUCCACCCCACUCUCACCCUUUAACCUCCUCCUCAACAGAGGAUUGAGCAUCA
B14: chr14:21343309:21343310:-_ENSMUSG00000021816_ENSMUST00000161445|mus_hu|FALSE|FALSE (ssRNA)
RNA: GGGAGUUCUACAGUCCGACGAUCAGGAUCGGACCAUAACAAGUCACACAUUGGUCCAAAUGCAGGUGGCUCUUUGAAUCUAUCUAAUCUCCUAAUAUCAUCCAGUGUGUGUAUUUCUGGUGAAAGUCCACCAUGAACACAAAGCAACAGAGGAUUGAGCAUCA
B15: chr12:25362807:25362808:-_ENSG00000133703_ENST00000311936|hu_hu|FALSE|FALSE (ssRNA)
RNA: GGGAGUUCUACAGUCCGACGAUCUUUCUUCUUUUUACCAUCUUUGCUCAUCUUUUCUUUAUGUUUUCGAAUUUCUCGAACUAAUGUAUAGAAGGCAUCAUCAACACCCUGUCUUGUCUUUGCUGAUGUUUCAAUAAAAGGAAUCAACAGAGGAUUGAGCAUCA
B16: chr14:76904430:76904431:+_ENSMUSG00000022010_ENSMUST00000022587|mus_mus|mus_mus_mus_hu_True|1_48 (ssRNA)
RNA: GGGAGUUCUACAGUCCGACGAUCUGCAGCCAAAAACACCCUCGUGGAAAAAAAGAGGGAACACCAGCAGCCUUGUAUAAGCUAGAUAAAACCGCCUGGCUUUCCGCAGCCCAGGGAGAAACAGAAAACGGCAGCCCUCGAGUGCAACAGAGGAUUGAGCAUCA
B17: chr1:225611761:225611762:-_ENSG00000143815_ENST00000272163|hu_mus|hu_hu_hu_mus_True|28_108 (ssRNA)
RNA: GGGAGUUCUACAGUCCGACGAUCCCAGGCCAUCGACCUCUGACCACUUCACCCUCAACAAACUUCCUACUUGGCAUUUUCUAAAAUUAGUCUGGCCGCGCUCCGGCCGGUGACACGGCCACUCCAGGACAGUCACCAGCAGCCCAACAGAGGAUUGAGCAUCA
B18: chr2:202488911:202488912:-_ENSG00000155755_ENST00000286196|hu_mus|hu_hu_hu_mus_False|38_58 (ssRNA)
RNA: GGGAGUUCUACAGUCCGACGAUCAUUGAAACAUUUUUCAUAAUCUCCAGUAGCAUUUCAGCAUUAUGUAACAAAAGAUCUAUUACAAAUACAUGUAUAUACAUCUUAUACACUUAAAAACACGAGUGGGGAGCGCAGGCGCCACAACAGAGGAUUGAGCAUCA
B19: chr19:10591827:10591828:-_ENSMUSG00000024668_ENSMUST00000025570|mus_mus|FALSE|FALSE (ssRNA)
RNA: GGGAGUUCUACAGUCCGACGAUCUUCAAUCAUGUCUUUUUGAGAGUCUGUUGGGCUGUCACCUCUGUAGAAGCGUCUGAAUGAUGUCACACUAGGCAAGGGAGACAGCAGACUGUGCUUUGACAGUGCCCGCGCCAGCGUCGGCAACAGAGGAUUGAGCAUCA
B20: 78432385_78432637_487_CDS_ENSG00000162613_ENST00000370768|human|control|control (ssRNA)
RNA: GGGAGUUCUACAGUCCGACGAUCUUCAGGUGUUCCAGUUAACAUACAGGACCUUUCUGGAAGGCCACCACUGUCAGGAGCUAUCUGUAUUUUGCAUCCAGAUUCCUGUUGUAUGCGUGAGAUCUGUUCACCUCCUCUGCCAAUCAACAGAGGAUUGAGCAUCA
B21: chr11:86535762:86535763:-_ENSMUSG00000047126_ENSMUST00000103186|mus_mus|motif|central (ssRNA)
RNA: GGGAGUUCUACAGUCCGACGAUCUGCAAAGCACUGGAUGACUUUAUUAGGUACAUUGGCCCUGAGGUAAACACUCAGUGCGGAUGUUGGGUCCACAGAUUUAACGAGAUCACCCAGUUCUUCAGAACAUUCCAGCUUAUCUUCCAACAGAGGAUUGAGCAUCA
B22: 122916881_122917777_1671_CDS_ENSMUSG00000029467_ENSMUST00000031423|mouse|control|control (ssRNA)
RNA: GGGAGUUCUACAGUCCGACGAUCGGCUAACUCUACAAGCCCGUCAUACUGAUGGCACUUCACUGGCUUAUCAUCCUUUUGCACUUCUCCAAUUGGUGCAUAUGUGGAUCCAGUUAUGCUGAACUCAUUAAGGGAACAAGUGUCCAACAGAGGAUUGAGCAUCA

This assay deals with T1, UNK ZnF1-3 (human, UniProt Q9C0B0 31-174).
T1 sequence: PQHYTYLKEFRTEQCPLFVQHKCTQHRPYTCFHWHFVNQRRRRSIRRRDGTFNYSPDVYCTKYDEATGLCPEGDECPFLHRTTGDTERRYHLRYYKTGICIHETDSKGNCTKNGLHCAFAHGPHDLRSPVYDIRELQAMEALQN
Briefly: nsRBNS (natural sequence RNA bind-n-seq); RBNS binding buffer (assumed for nsRBNS): 25 mM Tris pH 7.5, 150 mM KCl, 3 mM MgCl2, 0.01% Triton X-100, 500 ug/ml BSA, 20 U/ml SUPERase-In, 4 C; UNK is unkempt and MSI1 is Musashi-1; names of the RNAs are library labels; protein concentration not given here; high values mean tight binding.
Take B1: the binding signal worked out at 0.462 enrichment R.

Consider B2, for which the binding signal came out at 2.49 enrichment R. In the case of B3, the binding signal was 0.832 enrichment R. To B4 belongs 0.551 enrichment R. B5: the binding signal is 0.522 enrichment R.

Take B6: the binding signal came to 2.05 enrichment R.

Turning to B7, the binding signal was 0.655 enrichment R.

On to B8, for which the binding signal amounted to 1.72 enrichment R. With B9 the figure was 1.08 enrichment R; with B10, 1.51 enrichment R; with B11, 0.974 enrichment R.

In the case of B12, the binding signal worked out at 0.756 enrichment R.

B13 registered a binding signal of 1.19 enrichment R. For the molecule B14, the binding signal came to 0.748 enrichment R. With B15 the figure was 0.454 enrichment R.

In turn, B16 displayed a binding signal of 1.8 enrichment R. With B17 the figure was 1.18 enrichment R; with B18, 0.766 enrichment R. With B19 the figure was 0.794 enrichment R; with B20, 0.709 enrichment R.

For the molecule B21, the binding signal amounted to 0.645 enrichment R. With B22 the figure was 0.382 enrichment R.

The values above are taken from paper PMC12136788.
